Measured values published in PubChem BioAssay AID662 (National Center for Advancing Translational Sciences (NCATS), 2007).
Out of some 71,000 compounds screened, about 1,800 (2.5%) were called active. Inconclusive means that the source gave no clear call. Such entries were picked first, then a sample of the others. Calls come from the whole dose curve; as a rule, active = well fitted activation curve with a large enough effect in the signal ratio, with a control signal flat (not every such curve was filed as active); inconclusive = small, poorly fitted or top-dose-only effect, or effect the other way, or a change in a side signal; inactive = flat fitted curve, though single readings scatter; the % refers to the signal ratio. Where the call is inconclusive, the potency comes from a doubtful curve fit.

experiment: Cell signaling CRE-BLA (Fsk stim); settings: CHO CRE-bla reporter (cAMP response element driving beta-lactamase), forskolin EC10, beta-lactamase ratio; activity change, negative = inhibition: at 38.2 µM (top of the series) unless noted; for activity change, negative = inhibition: % of control where 0% means no effect
Method in brief: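 Beta-lactamase reporter under a cAMP responsive element in CHO cells; compounds tested in titration series against EC10 NKH 477, 3 h at 37 °C. Read-out: CCF4 FRET ratio 460nm/530nm (excitation 405nm) giving %Activity, fitted to AC50.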
Potency is the fitted concentration of half-maximal effect; tags give direction and shape of the fitted curve.

Row | Compound | activity change, negative = inhibition | Potency
1 | O=C1CCc2cc(S(=O)(=O)NC(Cc3ccccc3)C(=O)NCC3CCCO3)ccc2N1 (centres undefined) | inactive: -3.88% | –
2 | CCOC(=O)CC(=O)CSc1nnc(Cn2c(=O)sc3ccccc32)n1C | inactive: 6.52% | –
3 | CCOC(=O)C1CCCN(C(=O)c2ccco2)C1 (centres undefined) | inconclusive: -4.12% [at 7.6 µM] | –
4 | COc1ccc(-c2nc3cnc(OC)nc3n(-c3ccc(OC)cc3)c2=O)cc1 | – | inconclusive: 15.8 µM [rising, partial curve]
5 | CCCn1c(C)nc2c(c1=O)c1nc3ccccc3nc1n2CCC1=CCCCC1 | inactive: 17.7% | –
6 | COc1cc(C(c2sc3nc(C)nn3c2O)N2CCN(c3ccccc3)CC2)cc(OC)c1OC (centres undefined) | – | active: 2 µM
7 | CCOC(=O)c1cnn(-c2ncnc3sc(CC)cc23)c1N | inconclusive: 20.3% | –
8 | Cc1ccc2cc(C#N)c(NCCCNC(=O)C3CCCO3)nc2c1 (centres undefined) | – | inconclusive: 10 µM [rising, partial curve]
9 | Cc1cc(NC(=O)NC2(C(F)(F)F)Oc3ccc(Cl)cc3O2)no1 (centres undefined) | – | inconclusive: 1.26 µM [falling, partial curve, poor fit]
10 | O=C1Nc2ccc(S(=O)(=O)N3CCCC3)c3ccc(S(=O)(=O)N4CCCC4)c1c23 | inactive: 11.7% | –
11 | Nc1c(Nc2ccccc2)c2ccccc2oc1=O | inactive: 3.13% | –
12 | CC(C)c1ccc2oc(-c3ccc(N)cc3)nc2c1 | – | inconclusive: 3.98 µM [rising, partial curve]
13 | CCN(Cc1ccccc1)C(c1cc2cc(C)cc(C)c2[nH]c1=O)c1nnnn1CCOC (centres undefined) | inactive: 4.07% | –
14 | COC(=O)c1c(NC(=O)CC2SCC(C(=O)OC)NC2=O)sc2c1CCCC2 (centres undefined) | – | inconclusive: 15.8 µM [rising, single point]
15 | CCOC(=O)CNC(=O)CSc1nc2ncc(Br)cc2[nH]1 | inactive: 0.366% | –
16 | CCOC(=O)Cn1c(C)c(C#N)c2ccccc21 | inconclusive: -15.2% | –
17 | COC(=O)c1ccc(CSc2ccc3nnc(-c4ccc(OC)c(OC)c4)n3n2)o1 | – | active: 1.58 µM
18 | O=C(c1csnn1)N1CCC2(CCN(Cc3cc(C(F)(F)F)cc(C(F)(F)F)c3)CC2)CC1 | inactive: -6.69% | –
19 | Cc1csc(=O)n1CC(=O)OCc1cccc2ccccc12 | inconclusive: 6.6% | –
20 | COc1cc(C[C@H]2C(=O)OC[C@@H]2Cc2ccc(OC)c(OC)c2)ccc1O | – | inconclusive: 5.01 µM [rising, partial curve]
21 | CCCC(=O)Nc1cccc(NC(=O)c2ccc3c(c2)OCCO3)c1 | inconclusive: -13.5% | –
22 | N#CCSc1nnc2c(Cl)cc(Cl)cn12 | – | inconclusive: 5.01 µM [rising, single point]
23 | Nc1nc2ccc([N+](=O)[O-])cc2s1 | inconclusive: -24.1% | –
24 | Cc1cc(C(=O)N[C@@H](c2ccccc2)[C@]2(C)C[C@H]2[C@@H](C)C(=O)Nc2ccc3ccccc3c2)no1 | inconclusive: -15.3% | –
25 | C#CCNc1nc(C(C)C)nc2c1nnn2Cc1ccccc1F | – | active: 10 µM
26 | Cc1cc(C(=O)OCC(=O)N(C)C2CCS(=O)(=O)C2)c(C)n1-c1ccccc1 (centres undefined) | inconclusive: 30.5% | –
27 | CCCCCOc1ccc(NS(C)(=O)=O)cc1 | inconclusive: -3.81% | –

Row | Compound | activity change, negative = inhibition | Potency
28 | COCCn1c(=O)c(-c2ccccc2)nc2cnc(Oc3ccc(OC)cc3)nc21 | inconclusive: 20.2% | –
29 | Cc1ccc2oc(C(=O)Nc3c(C)n(C)n(-c4ccccc4)c3=O)c(C)c2c1 | inactive: -12.3% | –
30 | CCN(CC(=O)NC)S(=O)(=O)c1ccc(Br)cc1 | inconclusive: 5.29% | –
31 | c1csc(CNc2ncncc2-c2ccc3c(c2)OCO3)c1 | inconclusive: 16.6% | –
32 | Cc1noc2nc(-c3cccs3)cc(-c3nnc4n3CCCCC4)c12 | inconclusive: 12.5% | –
33 | CCCCC(=O)NCCNc1nc2c(c(=O)n(C)c(=O)n2C)n1Cc1ccccc1 | inconclusive: 22.2% | –
34 | COc1ccc(-c2nnc3ccc(SCC(=O)N4CCCCC4)nn23)cc1OC | – | inconclusive: 6.31 µM [rising, partial curve]
35 | CCOC(=O)C1=C(C)N2C(=C(C#N)[C@@H]1c1ccc(C(=O)OC)cc1)SC[C@@]2(O)C(C)(C)C | inactive: -1.52% | –
36 | O=C(O)C1C2CCC(O2)C1C(=O)NCCC1=CCCCC1 (centres undefined) | inconclusive: 26.5% | –
37 | Cc1cc(OCCCn2ccnc2)cc(C)c1Cl | – | inconclusive: 0.2 µM [rising, partial curve]
38 | Cc1noc(C)c1CSCC(=O)OCC(=O)Nc1sccc1C#N | inconclusive: -8.73% | –
39 | Cn1c(=O)c2c(nc(Sc3nc4ccccc4n3CC(=O)N3CCCCC3)n2C)n(C)c1=O | – | inconclusive: 10 µM [rising, partial curve]
40 | O=C(CSc1cccc2cccnc12)N1CCCC1 | inactive: -19.5% | –
41 | CCNc1ncc2nc(-c3ccc(OC)cc3)c(=O)n(Cc3cccc(OC)c3)c2n1 | – | inconclusive: 1 µM [rising, partial curve]
42 | O=c1c(-c2ccccc2)nc2cnc(N3CCOCC3)nc2n1Cc1ccc(F)cc1 | – | inconclusive: 0.501 µM [rising, full curve]
43 | Cc1cc(N)c(NC2=CC(=O)CC(C)(C)C2)cc1C | inconclusive: 17.9% | –
44 | COC(=O)c1ccccc1NC(=O)C1CC(=O)N(c2ccc(F)cc2)C1 (centres undefined) | inactive: 11.4% | –
45 | Cc1onc(-c2c(F)cccc2Cl)c1C(=O)OCn1nnc2ccccc2c1=O | – | inconclusive: 2.51 µM [rising, single point]
46 | CC(=O)Nc1cc2c(cc1C(C)=O)OCCO2 | inconclusive: 14.6% | –
47 | Cc1ccc2nc(N/N=C\c3cccc(C)n3)cc(C)c2c1 | inactive: 10.7% [at 7.6 µM] | –
48 | CCn1ncc(Br)c1C(=O)Nc1sc2c(c1C(=O)OC)CCC2 | – | inconclusive: 10 µM [rising, single point]
49 | Cc1cccc(Nc2nc(N)nc(CN3CCC(C)CC3)n2)c1C | inactive: 0.424% | –
50 | OCCCc1nc2ccccc2n1CCOc1ccccc1 | inconclusive: 3.8% [at 7.6 µM] | –
51 | N#CCCN1CCN(C(=S)c2ccc(-c3cc(Cl)ccc3Cl)o2)CC1 | inactive: 11.5% | –
52 | N#Cc1cccc(-c2nc(NCc3cccnc3)c3ccccc3n2)c1 | – | active: 10 µM
53 | CN(C)c1ccc(-c2ccncc2)cc1 | inactive: 5.59% | –
54 | CCn1c(N2CCN(CC(=O)c3c[nH]c4ccccc34)CC2)nc2c1c(=O)[nH]c(=O)n2C | inactive: 28% | –
